Results: the antibiotic and cytotoxicity screens of Wong et al. (2023)
The list shows a part of the results.

Tested on: S. aureus RN4220
Assay: growth inhibition call (relative growth <= 0.2)
Conditions: 50 µM

Compound | growth inhibition call
C[C@@H]1CCCCO[C@H](CN(C)S(=O)(=O)c2ccccc2)[C@H](C)CN([C@H](C)CO)C(=O)c2cc(NS(=O)(=O)c3cn(C)cn3)ccc2O1 | inactive
C[C@@H]1CN([C@H](C)CO)C(=O)c2cc(NS(=O)(=O)c3cn(C)cn3)ccc2O[C@H]1CN(C)CC1CC1 | inactive
CC(C)C#Cc1ccc2c(c1)O[C@@H](CN(C)S(=O)(=O)c1cn(C)cn1)[C@@H](C)CN([C@@H](C)CO)S2(=O)=O | inactive
COc1cc(NS(C)(=O)=O)ccc1Nc1c2ccccc2nc2ccccc12 | inactive
CN(C)CCCNC(=O)[C@@]1(Cc2ccccc2I)c2ccccc2C(=O)N(C2CCCCC2)[C@H]1c1ccc(CO)cc1 | inactive
C[C@@H]1CN([C@@H](C)CO)C(=O)CCCn2cc(nn2)CO[C@H]1CN(C)C(=O)Nc1ccc2c(c1)OCCO2 | inactive
O=C(C[C@@H]1CC[C@H]2[C@@H](COC[C@H](O)CN2C(=O)Nc2cccc(Cl)c2)O1)NCCCN1CCOCC1 | active
CC(C)NC(=O)N(C)C[C@@H]1Oc2ccc(NC(=O)CCN3CCOCC3)cc2CC(=O)N([C@H](C)CO)C[C@@H]1C | inactive
C[C@H]1CCCCO[C@@H](CN(C)Cc2ccc(C(=O)O)cc2)[C@@H](C)CN([C@@H](C)CO)C(=O)c2cc(NC(=O)CCC(F)(F)F)ccc2O1 | inactive
NCC1CCN(Cc2ccccc2)CC1 | inactive
N#Cc1ccc(N2CCCNCC2)nc1 | inactive
CC(C)CC#Cc1ccc2c(c1)O[C@@H](CN(C)C(=O)c1ccccn1)[C@@H](C)CN([C@@H](C)CO)S2(=O)=O | inactive
CN(C)Cc1cn(CC[C@@H]2CC[C@H](NS(=O)(=O)c3ccccc3)[C@H](CO)O2)nn1 | inactive
C[C@@H]1CN([C@@H](C)CO)C(=O)c2cccc(NC(=O)C3CCCCC3)c2O[C@@H]1CN(C)Cc1ccc(-c2ccccc2)cc1 | inactive
C[C@@H]1CCCCO[C@H](CN(C)C(=O)CCC(F)(F)F)[C@@H](C)CN([C@@H](C)CO)C(=O)c2cc(NS(=O)(=O)c3ccccc3)ccc2O1 | inactive
CCCN1C[C@@H](C)[C@H](OC)CN(C)C(=O)c2cc(NS(=O)(=O)c3cn(C)cn3)ccc2OC[C@@H]1C | inactive
COc1ccc(C2CNC(=O)C2)cc1OC1CCCC1 (stereo not drawn) | inactive

Compound | growth inhibition call
C[C@@H]1CCCCO[C@@H](CN(C)Cc2ccc(C(=O)Nc3ccccc3N)cc2)[C@@H](C)CN([C@H](C)CO)C(=O)c2cc(NC(=O)Nc3ccc4c(c3)OCO4)ccc2O1 | inactive
CN(C)CCCCSC(=N)N | inactive
C[C@@H]1CN([C@H](C)CO)C(=O)c2cc(NC(=O)Cc3cn(C)c4ccccc34)ccc2O[C@H]1CN(C)C(=O)Nc1cccc2ccccc12 | inactive
C[C@H]1CN([C@@H](C)CO)C(=O)c2cccc(NC(=O)C3CCOCC3)c2O[C@H]1CN(C)Cc1ccccc1 | inactive
Cc1ccc(S(=O)(=O)N(C)C[C@@H]2OCCCC[C@@H](C)Oc3ccc(NC(=O)Nc4ccc5c(c4)OCO5)cc3C(=O)N([C@H](C)CO)C[C@H]2C)cc1 | inactive
C[C@H](CO)N1C[C@H](C)[C@H](CN(C)C(=O)Cc2ccccn2)Oc2cc(-c3cccc(C(=O)N(C)C)c3)ccc2S1(=O)=O | inactive
C[C@@H]1CN([C@@H](C)CO)S(=O)(=O)c2ccc(C#Cc3ccncc3)cc2O[C@@H]1CN(C)S(=O)(=O)c1ccc(F)cc1 | inactive
C[C@@H]1CN([C@@H](C)CO)C(=O)c2ccccc2-c2ccccc2CO[C@@H]1CN(C)Cc1ccc(C(F)(F)F)cc1 | inactive
CC(=O)CNC(=O)Cc1ccccc1 | inactive
O=S(=O)(NCc1ccco1)N1CCOCC1 | inactive
CN(C)CCCNC(=O)C[C@@H]1CC[C@@H](NS(=O)(=O)c2ccccc2)[C@@H](CO)O1 | inactive
COc1ccc(S(=O)(=O)N(C)C[C@@H]2Oc3ccc(NC(=O)NC(C)C)cc3C(=O)N([C@H](C)CO)C[C@@H]2C)cc1 | inactive
C[C@@H]1CCCCO[C@@H](CN(C)CC2CC2)[C@H](C)CN([C@@H](C)CO)C(=O)c2cc(NC(=O)Nc3ccc(C(F)(F)F)cc3)ccc2O1 | inactive
CCC[C@@H](O)C#Cc1cnc2c(c1)C(=O)N([C@H](C)CO)C[C@H](C)[C@H](CN(C)C(=O)Nc1ccccc1)O2 | inactive
CC(=O)OCC(CCn1cnc2cnc(N)nc21)COC(C)=O | inactive
C[C@H](CO)N1C[C@H](C)[C@H](CN(C)S(=O)(=O)c2cccs2)Oc2ccc(NS(C)(=O)=O)cc2CC1=O | inactive
